Results on 2 molecules are retold here after US20220251204A1 (AstraZeneca / MedImmune, published 2022).

The target of the test is T1, hOX40-Fc (human recombinant protein, R&D Systems) (human, UniProt P43489 29-216).
T1 construct: also called human OX40-Fc; not shown: Fc part of the bought fusion
T1 sequence: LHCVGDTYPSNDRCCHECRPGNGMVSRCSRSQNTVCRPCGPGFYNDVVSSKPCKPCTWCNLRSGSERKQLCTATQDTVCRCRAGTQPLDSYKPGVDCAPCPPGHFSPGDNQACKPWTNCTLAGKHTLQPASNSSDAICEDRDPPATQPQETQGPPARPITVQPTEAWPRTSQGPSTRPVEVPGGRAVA
As to the kind of experiment: Octet, same sensor after PD-L1-His and bispecific, then hOX40-Fc (100 nM per paragraph 346): concurrent binding. A general note: BLI is a label-free optical method that tracks binding on a fibre tip over time.

B1: BiS2 OX40Ab/PD-L1 (bispecific antibody, human IgG4 S228P, kappa)
heavy: EIVLTQSPGTLSLSPGERATLSCRASQRVSSSYLAWYQQKPGQAPRLLIYDASSRATGIPDRFSGSGSGTDFTLTISRLEPEDFAVYYCQQYGSLPWTFGCGTKVEIKGGGGSGGGGSGGGGSGGGGSEVQLVESGGGLVQPGGSLRLSCAASGFTFSRYWMSWVRQAPGKCLEWVANIKQDGSEKYYVDSVKGRFTISRDNAKNSLYLQMNSLRAEDTAVYYCAREGGWFGELAFDYWGQGTLVTVSSGGGGSGGGGSQVQLQESGPGLVKPSQTLSLTCAVYGGSFSSGYWNWIRKHPGKGLEYIGYISYNGITYHNPSLKSRITINRDTSKNQYSLQLNSVTPEDTAVYYCARYKYDYDGGHAMDYWGQGTLVTVSSASTKGPSVFPLAPCSRSTSESTAALGCLVKDYFPEPVTVSWNSGALTSGVHTFPAVLQSSGLYSLSSVVTVPSSSLGTKTYTCNVDHKPSNTKVDKRV[human IgG4 Fc with S228P (EU numbers) not shown]
light: DIQMTQSPSSLSASVGDRVTITCRASQDISNYLNWYQQKPGKAPKLLIYYTSKLHSGVPSRFSGSGSGTDYTLTISSLQPEDFATYYCQQGSALPWTFGQGTKVEIKRTVAAPSVFIFPPSDEQLKSGTASVVCLLNNFYPREAKVQWKVDNALQSGNSQESVTEQDSKDSTYSLSSTLTLSKADYEKHKVYACEVTHQGLSSPVTKSFNRGEC
notes: also called BiS2-PD-L1-OX40 HC-4P; OX40/PD-L1 BiS2
Regarding B1, the binding result is on record as “binds”.

B2: BiS3 OX40Ab/PD-L1 (bispecific antibody, human IgG4 S228P, kappa)
heavy: QVQLQESGPGLVKPSQTLSLTCAVYGGSFSSGYWNWIRKHPGKGLEYIGYISYNGITYHNPSLKSRITINRDTSKNQYSLQLNSVTPEDTAVYYCARYKYDYDGGHAMDYWGQGTLVTVSSASTKGPSVFPLAPCSRSTSESTAALGCLVKDYFPEPVTVSWNSGALTSGVHTFPAVLQSSGLYSLSSVVTVPSSSLGTKTYTCNVDHKPSNTKVDKRV[human IgG4 Fc with S228P (EU numbers) not shown]GGGGSGGGGSEIVLTQSPGTLSLSPGERATLSCRASQRVSSSYLAWYQQKPGQAPRLLIYDASSRATGIPDRFSGSGSGTDFTLTISRLEPEDFAVYYCQQYGSLPWTFGCGTKVEIKGGGGSGGGGSGGGGSGGGGSEVQLVESGGGLVQPGGSLRLSCAASGFTFSRYWMSWVRQAPGKCLEWVANIKQDGSEKYYVDSVKGRFTISRDNAKNSLYLQMNSLRAEDTAVYYCAREGGWFGELAFDYWGQGTLVTVSS
light: B1 light
notes: also called BiS3-OX40 HC-4P-PD-L1; OX40/PD-L1 BiS3
For the molecule B2, the binding result is “binds”.
